Reference: PubChem BioAssay AID1508624 (National Center for Advancing Translational Sciences (NCATS), 2021)
Hit rate of the full screen: of about 48,000 compounds, about 120 (0.25%) were called active. About 4% were inconclusive and are not listed. The call rests on the fitted dose curve; in most records, active means well fitted activation curve with a large enough effect; inconclusive means small, poorly fitted or top-dose-only effect, or another doubt; inactive means no such curve, though single readings can be large or run the other way. The list shows a part of the results.

Test: Primary qHTS for Identification of Small Molecule Activators of Huntingtin-Antisense Promoter Activity; further: nearly all actives have a fitted effect of over 55% in size
Settings: HEK293 HTT-AS promoter firefly luciferase reporter, 24 h; series mostly up to 57.5 µM; activity change, positive = activation: at the top concentration
How it was run: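 Quantitative HTS used concentration series of up to 57.5 uM final on HEK293 luciferase reporter cells, 24 h at 37 degrees C. Readout was Dual-Glo firefly luminescence.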

Activity change, positive = activation, inactive:
Cc1ccc(-n2nc(CO)c(C(=O)NCCC(C)C)n2)cc1C -28.7%, CCc1cccc(NC(=O)CSc2nnc(-c3cc4occc4n3C)n2-c2ccccc2C)c1 -21.1%, O=C(NCc1ccncc1)C12C[C@H]3C[C@@H](C1)CC(c1ccc(Cl)cc1)(C3)C2 -15.8%, Cc1ccc(CNC(=O)c2ccc(Cn3c(SCc4ccc(F)cc4)nc4cccnc43)cc2)o1 7.57%, O=c1n(Cc2ccc(F)cc2)c2ccccc2c2nc(-c3ccccc3)nn12 -10.3%, CCOC(=O)c1c(C)oc2nc(C)nc(NCC3CCN(Cc4cc(C)ccc4C)CC3)c12 -8.91%, Cc1ccc(N2C(=O)C(CC(=O)Nc3cccc(F)c3)N(CCc3ccccc3F)C2=O)cc1 (stereo unspecified) -2.18%, CCCN(C(=O)CCc1nc(-c2ccc(C)cc2)no1)c1ccc(OCC)cc1 -35.5%, Cc1ccc(Nc2c3c(nc4nncn24)CCC3)c(C)c1 -18.6%, Cc1ccc(NC(=O)CN2C(=O)c3cccnc3Sc3ccccc32)c(Br)c1 -12%, COc1ccc2c(c1)-c1nc(NC(=O)c3cccc(Br)c3)sc1CC2 -19.8%, Cc1ccc(NC(=O)Cn2nnc(-c3ccccc3)n2)c(C)c1 -3.48%, CCOC(=O)c1c(NC(=O)c2cc(-c3cccc(Cl)c3)on2)sc(C(C)=O)c1C 4.16%, O=C(C1COc2ccccc2O1)N(Cc1cccnc1)c1nc2c(F)cccc2s1 (stereo unspecified) 17.8%, CC1CCN(S(=O)(=O)c2cc(C(=O)N3CCN(c4cccc(Cl)c4)CC3)n(C)c2)CC1 -36.2%, COc1ccc(N(CC(=O)N2CCc3ccccc3C2)S(=O)(=O)c2ccccc2)cc1 -12.9%, CCOc1ccc(S(=O)(=O)c2cn(CC)c3ccc(F)cc3c2=O)cc1 0.086%, CCOC(=O)c1nnn(C(CC)C(=O)Nc2ccc(F)cc2)c1C(=O)OCC (stereo unspecified) -18.8%, COc1ccccc1C1C(C(=O)N2CCCCC2)=C(C)Nc2nc3ccccc3n21 (stereo unspecified) -12.2%, CCOc1ccc(C(=O)OCc2cc(=O)n3nc(C4CC4)sc3n2)cc1 -10.8%, COc1cc(Cl)c(C)cc1NC(=O)c1cc2c(=O)oc3ccccc3c2s1 -4.47%, CCn1cc(C(=O)N2CCN(c3cc(Cl)ccc3C)CC2)c(=O)c2cc(S(=O)(=O)N3CCCC3)ccc21 10.5% [at 11.5 µM, percent change from vehicle, -100% = no light], COc1cc2nc(SCC(=O)Nc3ccccc3C)n3nc(CCn4c(C)nc5ccccc54)nc3c2cc1OC 4.75%, CC(C)(C)C1CCc2c(sc(NC(=O)c3ccco3)c2C(=O)Nc2ccccc2Cl)C1 (stereo unspecified) 14.9% [at 11.5 µM, percent change from vehicle, -100% = no light], CCOCCCNC(=O)c1cn(CC)c2ccc(S(=O)(=O)N3CCOCC3)cc2c1=O -4.3%, CCOC(=O)CSc1nc2ccc(NC(=O)COc3ccc(F)cc3)cc2s1 -10.8%, Cc1cccc2sc(N(Cc3cccnc3)C(=O)CCOc3ccccc3)nc12 -16.2%, COc1ccc(CNC(=O)C2=CC(c3ccc(OC)c(OC)c3)=NS(=O)(=O)N2C)cc1 -13.1%, Cc1cc(C(=O)N2CCN(c3cccc(Cl)c3)CC2)c2c(C)nn(-c3ccccc3Cl)c2n1 -35.9%, CCCSc1ncc(Cl)c(C(=O)N(Cc2ccccc2)c2ccc(OC)cc2)n1 -54.8%, Cc1ccccc1OCC(=O)Nc1ccc(-c2nc3cc(Cl)cc(Cl)c3o2)cc1 23.6%, COc1cccc(NC(=O)N(CCC(C)C)C2CCN(C(C)C)CC2)c1 -8.06%, Cc1ccc(CNC(=O)C2CCN(S(=O)(=O)c3ccc4nc5c(c(C(=O)O)c4c3)CC(C)CC5)CC2)cc1 (stereo unspecified) -4.42%, CCc1cnc2c(c1SCC(=O)NCc1ccc(C)cc1)c(=O)n(C)c(=O)n2C -9.95%, C[C@@H](N)C(=O)O -5.74%, Cn1ccc2c(OCC(=O)Nc3ccc(OC(F)(F)F)cc3)cccc2c1=O -76.3%, CC(=O)c1ccc(NS(=O)(=O)c2ccc(Br)s2)cc1 -11.5%, Cc1ccc(Cn2c(=O)n(CCCCC(=O)NCc3ccc4c(c3)OCO4)c(=O)c3ccccc32)cc1 -17%, COc1cccc(N2CCN(C3=NS(=O)(=O)C(c4ccc(C)cc4)=C3C)CC2)c1 -5.37%, CCc1ccccc1S(=O)(=O)Cc1ccc(C(=O)NCCc2ccc(C)cc2)o1 -26.3%, CCC(Sc1nnc2c(n1)[nH]c1ccccc12)C(=O)Nc1ccccc1OC (stereo unspecified) 22.7%, CCc1ccccc1NC(=O)CSc1ncc2c(n1)-c1cc(Cl)ccc1N(Cc1ccccc1)S2(=O)=O -15.1%, Cc1cc(C)cc(C(=O)NCCc2csc(-c3ccc(C(F)(F)F)cc3)n2)c1 -21.8%, CCCCn1cc(S(=O)(=O)c2ccc(OC)cc2)c(=O)c2cc(F)c(N3CCOCC3)cc21 -14.8%, COc1ccc(CCNC(=O)CCc2c(C)nc3c4cccnc4nn3c2C)cc1OC -8.77%, Cc1c(C(=O)OCC2CCCCC2)[nH]c2c1C(=O)CC(c1ccccc1Cl)C2 (stereo unspecified) -11.2%, CCc1ccc(-n2nc(C)c3c(C)cc(=O)n(CC(=O)Nc4cc(C)ccc4C)c32)cc1 -13.7%, Cc1ccc(N2C(=O)c3n[nH]c(C)c3C2c2ccccc2Cl)cc1 (stereo unspecified) -25.7%, COc1ccccc1NC(=O)N1CCN(Cc2nc3ccc(C)cc3o2)CC1 -6.57%, Cn1cc(S(=O)(=O)N2CCCC2)cc1C(=O)N1CCN(c2cccc(Cl)c2)CC1 -24.9%, Cc1cnc(Nc2ccc(CN3CCOCC3)cc2)nc1Nc1cccc(S(=O)(=O)NC(C)(C)C)c1 -45.4%, Cc1cc(C)c(NC(=O)Cn2c(=O)n(CC3CCCO3)c(=O)c3ccccc32)c(C)c1 (stereo unspecified) -16.8%, Cc1cc2c(cc1NS(=O)(=O)c1ccc(NC(=O)CC(C)C)cc1)n(C)c(=O)c(=O)n2C -48.1%, CCOc1ccc(NC(=O)N(Cc2cn(CC)c3ccccc23)C2CCCCCC2)cc1 -9.78%, Cc1cc(C)c(NC(=O)C2CCN(S(=O)(=O)c3c(C)noc3/C=C/c3ccccc3F)CC2)c(C)c1 15.8%, COc1ccc(S(=O)(=O)c2c(Nc3ccc(C)cc3C)sc(C(=O)c3ccc(F)cc3)c2N)cc1 -18.6%, CN(C)c1ccc(C(CNC(=O)c2ccccc2Cl)N2CCCC2)cc1 (stereo unspecified) 1.97%, Cc1nnsc1C(=O)Oc1ccc(Cl)cc1 -10.5%, CN1C(=O)Cc2cc(S(=O)(=O)NCc3ccc(Cl)cc3)ccc21 -7.72%, O=C(NCc1ccccc1)C(=O)NCC(c1cccs1)S(=O)(=O)c1cccs1 (stereo unspecified) -20.6%, O=C(CSc1nc2c([nH]c3ccccc32)c(=O)n1-c1cccc(Cl)c1)c1ccccc1 -15.3%, CCN1CCC(N(Cc2ccc3c(c2)OCO3)C(=O)Nc2cccc(C)c2C)CC1 -6.46%, COc1ccc(Nc2ncc3c(n2)CCN(Cc2cccc(F)c2F)C3)c(OC)c1 -3.33%, CC(=O)N1CCCc2cc(S(=O)(=O)NCc3ccccc3Cl)ccc21 -27%, Cc1ccc(C)c(NC(=O)c2cc(S(=O)(=O)N3CCN(c4cccc(Cl)c4)CC3)ccc2F)c1 -22%, CCN(Cc1ccccc1)C(=O)C1CCC(CNS(=O)(=O)c2ccc3c(c2)CCCC(=O)N3)CC1 (stereo unspecified) -21.7%, CCc1ccc(Nc2nc3c(S(=O)(=O)c4ccc(C)cc4)nnn3c3ccsc23)cc1 -20.6%, Cc1ccc(S(=O)(=O)c2nnn3c2nc(N2CCCC(C)C2)c2cc(Cl)ccc23)cc1C (stereo unspecified) 2.54%, Oc1c(C(c2ccccc2Cl)N2CCC(O)CC2)sc2nc(-c3ccco3)nn12 (stereo unspecified) -5.46%, CCN(C(=O)Cn1cc(S(=O)(=O)N2CCN(c3ccccc3F)CC2)c2ccccc2c1=O)c1ccc(C)c(C)c1 -15.6%, Cc1ccc(NC(=O)Cn2c(=O)n(-c3ccccc3)c(=O)c3ccc(C(=O)NCc4ccc5c(c4)OCO5)cc32)cc1 -22.5%, Cc1ccc2oc(C(=O)Nc3ccc(S(=O)(=O)N4CCCCCC4)cc3)cc(=O)c2c1 7.65% [at 11.5 µM, percent change from vehicle, -100% = no light], CCc1ccc(NC(=O)c2sc(-n3nc(C)c(Cc4ccc5c(c4)OCO5)c3C)nc2C)cc1 -10.3%, CCOc1ccccc1NC(=O)Cn1c(=O)n(-c2ccc(C)c(C)c2)c(=O)c2oc3ccccc3c21 -2.8%, O=C(Oc1ccccc1F)c1nc(SCc2ccccc2F)ncc1Cl -12.2%, COc1ccccc1NC(=O)Cn1nc2c3cc(F)ccc3n(Cc3cccc(C)c3)cc-2c1=O -9.87%, CC(C)Cn1cnc2c(N)nc3ccccc3c21, CCOC(=O)c1ccc(Oc2nc(C)nc3c2oc2ccccc23)cc1 -18.6%, O=C(/C=C/c1ccccc1)Nc1nc2n(n1)C(c1ccc(Cl)cc1)C=C(c1ccccc1)N2 (stereo unspecified) -17.8%, Cc1nnsc1C(=O)Oc1ccc(C#N)cc1 -5.34%, O=C(CN1C(=O)C2(SCC(=O)N2c2cccc(F)c2)c2ccccc21)NCc1ccccc1Cl (stereo unspecified) -15.5%, Clc1ccc(CN2CCc3nc(N4CCN(c5ccccn5)CC4)ncc3C2)cc1 -30.2%, CCc1nc2ccccc2n1CCCCOc1cccc(C)c1 -28.7%, CCOC(=O)c1cc(-c2ccccc2)n(CCCC(=O)Nc2cccc(C)c2)c1C -21.7%, CC(C)(C)c1ccc(S(=O)(=O)c2cnc(SCC(=O)Nc3ccc4c(c3)OCCO4)[nH]c2=O)cc1 -2.78%, CC(C)CC(=O)NCC(c1ccc2c(c1)OCO2)N1CCN(c2ccc(F)cc2)CC1 (stereo unspecified) -8.61%, Cc1nnc2c3ccccc3nc(Nc3ccccc3C(=O)O)n12 -19.3%, Cc1ccc(NCc2cc3cc4c(cc3n(CC(=O)Nc3ccc(F)cc3F)c2=O)OCCO4)cc1 -3.02%, CCn1ccc2cc(S(=O)(=O)N3CCC(C(=O)NCC(C)c4ccccc4)CC3)ccc21 (stereo unspecified) -15.9%, CCOc1ccc(S(=O)(=O)NCc2ccc3c(c2)CCN3C(=O)c2ccc(C)cc2)cc1 -41.9%, O=C(COc1ccc(Cl)cc1)Nc1ccc2nc(SCC(=O)N3CCOCC3)sc2c1 -28.5%
